Reference: patent US9074002B2, “PTP1B inhibitors” (Cold Spring Harbor Laboratory, priority 2009, dated 2015)

Columns and labels:
PTP1B-OX = molecular target: T1, PTP1B-OX (Homo sapiens, UniProt P18031); assay: In vitro binding assay, purified recombinant PTP1B (37 kDa) and purified scFv, Ni-NTA pull down; conditions: purified proteins, scFv in molar excess, 2 hours at 4° C.; FIG. 9
T1 construct: made in house; host or cells: E. coli BL21 (pET19b)
T1 sequence (P18031 3-277): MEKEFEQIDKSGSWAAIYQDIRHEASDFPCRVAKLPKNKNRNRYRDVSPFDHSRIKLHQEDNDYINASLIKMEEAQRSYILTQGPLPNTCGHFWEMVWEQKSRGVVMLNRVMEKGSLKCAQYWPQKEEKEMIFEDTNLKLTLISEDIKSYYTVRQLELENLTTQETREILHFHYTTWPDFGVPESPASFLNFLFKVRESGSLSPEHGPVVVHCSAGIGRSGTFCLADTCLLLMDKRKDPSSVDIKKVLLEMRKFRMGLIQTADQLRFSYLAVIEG
Protocol: (§1) They established conditions in which PTP1B is reversibly oxidized by H2O2 in solution (FIG. 8). An artificial protein substrate RCML, in which tyrosine was phosphorylated with ^32P using recombinant GST-FER kinase was used in this assay to measure the phosphatase activity. Recombinant PTP (37 kDa) was incubated with increasing concentration (50 μM to 100 mM) of H2O2. A quick buffer exchange was done to remove the H2O2 and reducing agent (TCEP) was added to reactivate the enzyme.
(§2) In the in vitro binding assay, purified PTP was reversibly oxidized with […] followed by a quick buffer exchange to remove H2O2 (FIG. 8). Purified scFv was incubated in molar excess with PTP1B-OX or with PTP under reducing condition (with 2 mM TCEP) in binding buffer (20 mM HEPES, pH 7.4, 300 mM NaCl, 0.05% BSA, 0.05% Tween-20 and 10 mM imidazole) for 2 hours at 4° C. Ni-NTA agarose was added and incubated for one hour at 4° C. Protein complex bound to Ni-NTA agarose beads was pulled down and washed (three times, 5 minutes each, at 4° C.) with binding buffer containing 20 mM imidazole to reduce non-specific binding to the beads. […] The complex was separated by SDS-PAGE and PTP1B was detected with anti-PTP1B antibody (FG6) and scFv was detected with anti-HA antibody [anti-HA (3F10)-HRP, Roche] by immunoblotting. […]

[1] = molecular target: T2, PTP1B under reducing condition (Homo sapiens, UniProt P18031); assay: In vitro binding assay, purified recombinant PTP1B (37 kDa) and purified scFv, Ni-NTA pull down, reducing condition; conditions: with 2 mM TCEP; FIG. 9
T2 construct: made in house; host or cells: E. coli BL21 (pET19b)
T2 sequence (P18031 3-277 limits assumed): T1 sequence (P18031 3-277)
Protocol: as §1, §2

binding to PTP1B-OX in vitro (PTP1B-OX): no significant binding
binding to PTP1B under reducing condition in vitro [1]: no significant binding
B1: scFv48: scFv, SEQ ID NO: 81 (protein)
scFv: MKKTAIAIAVALAGFATVAQAALTQPSSVSANPGETVKITCSEGGRSSYYGWYQQKAPGSAPVTVIYDSSSRPSDIPSRFSGSKSGSTGTLTITGVQAEDEAVYYCGSTDSSTSAAIFGAGTTLTVLGQSSRSSTVTLDESGGGLQTPGRALSLVCKASGFTFSSFNMGWVRQAPGKGLEYVASISSSGSYTAYGSAVKGRATISRDNGQSTVRLQLNNLRAEDTATYYCAKAAGSAYYYTAVTPAFAGSIDAWGHGTEVIVSSTSGQAGQHHHHHHGAYPYDVPDYAS
